Experimental data as given in the supplement of paper PMC7826260.
This is one part of the list. Viral Rep nickase domains cut single-stranded DNA in vitro (1 h at 37 °C, 3 µM enzyme); the outer parts of the 90-letter strands are left off. Values are log2 of uncut reads against the no-enzyme pool; the lower, the more was cut; hits are not called. The scaling is to total reads; uncut strands gain when others are lost, and binding without cutting may add a little.

System: T1, Rep nickase domain of tomato golden mosaic virus
T1 sequence (residues 1-124, tag not shown): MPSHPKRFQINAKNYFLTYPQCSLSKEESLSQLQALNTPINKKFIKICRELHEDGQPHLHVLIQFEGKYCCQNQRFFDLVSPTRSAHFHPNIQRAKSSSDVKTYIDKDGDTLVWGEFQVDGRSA
Experiment: uncleaved DNA left, log2 of reads against the no-enzyme library (log2 ratio); higher = less cleavage (more negative = more Rep cleavage of the k-mer); sequences stand for … in CTCGTCCG…ACCGGAGA
Description: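 A pool of 90-nt single-stranded DNAs with seven random bases just before the constant AC of the nick site (name = the seven bases) was cut by 3 µM recombinant His6-SUMO-tagged Rep nickase domain (300 nM DNA, 50 mM HEPES pH 8.0, 50 mM NaCl, 1 mM MnCl2, 1 h, 37 °C, three replicates). Uncut DNA was amplified and sequenced.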

Sequence | uncleaved DNA left (log2)
TGTCAAA | 0.0227
TGCAGAC | -0.0745
TTACTAC | 0.0422
ATCGCTC | -0.132
CCCTCCA | 0.0848
AATACAA | 0.0623
CGCAGAG | -0.0255
CGTCAGG | 0.0177
TATTACT | -3.76
CTCTCAA | -0.09
ACCTGTT | -0.0458
CTATCAG | 0.162
ATTCTTG | -0.156
TTACGGG | -0.181
ATACTGA | 0.0593
TCCGCAA | -0.251
ACAGGGG | 0.138
TTTGGGG | 0.141
AGCTGTT | -0.179
GGACACC | 0.0499

Sequence | uncleaved DNA left (log2)
CTTCCTC | -0.134
AGTAGAA | 0.157
CAATTCT | -4.12
TGGACAA | 0.208
GATGCCG | -0.0577
GGCATCC | -0.137
ATGATGC | 0.122
CGCAAGC | 0.0293
CATACTT | -0.0574
CGAATGG | -0.0863
AGTGGTC | -0.0276
GATGTTC | 0.0193
ACCGTCG | -0.0335
GGATACC | 0.131
CGCGTGA | -0.196
ATTCCTC | -0.0186
ACTGGTG | 0.0806
GAGGTCA | 0.0821
GCGCAGT | 0.00985
GCCCGTT | 0.166
